This passage reports planktonic growth results from the supplement of paper PMC7580552.

Structures can show the parent of a compound that is named as a salt. The list shows a part of the results. Many values rest on one well or one pass, so single values are uncertain.
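Also: stationary (unshaken) cultures in 96-well plates, started at OD600 0.05 from mid-exponential cells, with compounds supplied from DMSO stocks.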

The test system of this experiment is Escherichia coli W3110. Kind of experiment: planktonic growth (OD600) relative to untreated control; higher = more growth. The conditions noted are these: 10 µM; 20-24 h; 30 °C; TB.
Compound `CC(=O)OCC(=O)[C@@]1(O)CC[C@H]2[C@@H]3CCC4=CC(=O)CC[C@]4(C)[C@@]3(F)[C@@H](O)C[C@@]21C` [Fludrocortisone acetate] returned a planktonic growth of 110%.

`CCCCN(CCCC)CCCOC(=O)c1ccc(N)cc1` [Butacaine] gave a planktonic growth of 99%.

In the case of `COC(=O)Nc1nc2cc(C(=O)c3cccs3)ccc2[nH]1` [Nocodazole], the planktonic growth came out at 94%.

Compound `Cc1ccc(C(=O)c2ccc(CC(=O)O)n2C)cc1` [Tolmetin sodium salt dihydrate] gave a planktonic growth of 90%.

For `CC[N+](C)(CC)CCOC(=O)C1c2ccccc2Oc2ccccc21` [Methantheline bromide], the planktonic growth came out at 93%.

For the compound `CC(=O)OCC(=O)[C@@]1(O)CC[C@H]2[C@@H]3CCC4=CC(=O)CC[C@]4(C)[C@H]3[C@@H](O)C[C@@]21C` [Cortisol acetate], the planktonic growth turned out to be 92%.

In turn, `Cc1ncc(C[n+]2csc(CCO)c2C)c(N)n1` [Thiamine hydrochloride] showed a planktonic growth of 99%.

As to `CCN[C@H]1CN(CCCOC)S(=O)(=O)c2sc(S(N)(=O)=O)cc21` [Brinzolamide], the planktonic growth is 98%.

As for `NS(=O)(=O)c1cc(C2(O)NC(=O)c3ccccc32)ccc1Cl` (stereo not drawn) [Chlorthalidone], the planktonic growth was 93%.

For the compound `C=CC(N)CCC(=O)O` (stereo not drawn) [Vigabatrin hydrochloride], the planktonic growth stood at 99%.

In turn, `CC[N+](C)(C)c1cccc(O)c1` [Edrophonium chloride] showed a planktonic growth of 109%.

Take `NCCc1c[nH]cn1` [Histamine dihydrochloride]: the planktonic growth was 95%.

`OC(Cn1cncn1)(Cn1cncn1)c1ccc(F)cc1F` [Fluconazole]: the planktonic growth was found to be 100%.

Turning to `CCCOc1cc(N)ccc1C(=O)OCCN(CC)CC` [Propoxycaine hydrochloride], the planktonic growth came out at 95%.

`Cc1cn[nH]c1` [Fomepizole] had a planktonic growth of 101%.

Compound `C[C@H]1O[C@H](O[C@H]2[C@H](O)[C@@H](O)[C@@H](O[C@H]3[C@H](O)[C@@H](O)C(O)O[C@@H]3CO)O[C@@H]2CO)[C@H](O)[C@@H](O)[C@@H]1N[C@H]1C=C(CO)[C@@H](O)[C@H](O)[C@H]1O` (stereo partly drawn) [Acarbose] showed a planktonic growth of 99%.

As to `CC(C)(C)NC[C@@H](O)COc1cccc2c1CCCC2=O` [(+) -Levobunolol hydrochloride], the planktonic growth is 92%.

As to `CO[C@H]1/C=C/O[C@@]2(C)Oc3c(C)c(O)c4c(O)c(c(/C=N/N5CCN(C6CCCC6)CC5)c(O)c4c3C2=O)NC(=O)/C(C)=C\C=C\[C@H](C)[C@H](O)[C@@H](C)[C@@H](O)[C@@H](C)[C@H](OC(C)=O)[C@@H]1C` [Rifapentine], the planktonic growth is 9%.

As for `N=C(N)NC(=N)NCCc1ccccc1` [Phenformin hydrochloride], the planktonic growth was 96%.

For `CN1CCC(=C2c3ccccc3C=Cc3ccccc32)CC1` [Cyproheptadine hydrochloride], the planktonic growth came out at 26%.

`CC(Cc1cccc(C(F)(F)F)c1)NCCOC(=O)c1ccccc1` (stereo not drawn) [Benfluorex] yielded a planktonic growth of 108%.

For the compound `CC(=O)S[C@@H]1CC2=CC(=O)CC[C@]2(C)[C@H]2CC[C@@]3(C)[C@@H](CC[C@@]34CCC(=O)O4)[C@H]12` [Spironolactone], the planktonic growth worked out at 101%.

`CCCc1cc(C(N)=S)ccn1` [Prothionamide] yielded a planktonic growth of 92%.

Turning to `NNCCc1ccccc1` [Phenelzine sulfate], the planktonic growth turned out to be 106%.

On to `Clc1ccc(CCC(Cn2ccnc2)Sc2c(Cl)cccc2Cl)cc1` (stereo not drawn) [Butoconazole nitrate], for which the planktonic growth was 69%.

`N#Cc1ccc(C(c2ccc(C#N)cc2)n2cncn2)cc1` [Letrozole]: the planktonic growth was 91%.

For `C[N+]1(C)CCC(OC(=O)C(O)(c2ccccc2)C2CCCC2)C1` (stereo not drawn) [Glycopyrrolate], the planktonic growth worked out at 97%.

As to `N=C(NCCCCCCNC(=N)NC(=N)Nc1ccc(Cl)cc1)NC(=N)Nc1ccc(Cl)cc1` [Chlorhexidine], the planktonic growth is 18%.

As for `NCc1ccccc1CC(=O)N[C@@H]1C(=O)N2C(C(=O)O)=C(CSc3nnnn3CC(=O)O)CS[C@H]12` [Ceforanide], the planktonic growth was 4%.

`CN1CCN(C2=Nc3ccccc3Oc3ccc(Cl)cc32)CC1` [Loxapine succinate] gave a planktonic growth of 102%.

As for `O=C(O)c1cn(-c2ccc(F)cc2)c2cc(N3CCNCC3)c(F)cc2c1=O` [Sarafloxacin], the planktonic growth worked out at 24%.

On to `C[C@@H]1C[C@H]2[C@@H]3C[C@H](F)C4=CC(=O)C=C[C@]4(C)[C@@]3(F)[C@@H](O)C[C@]2(C)[C@@]1(O)C(=O)CO` [Flumethasone], for which the planktonic growth was found to be 95%.

`O=C(O)Cc1ccc(-c2ccccc2)cc1` [Felbinac] gave a planktonic growth of 74%.

The compound `COc1cc(C(=O)OCCCN2CCCN(CCCOC(=O)c3cc(OC)c(OC)c(OC)c3)CC2)cc(OC)c1OC` [Dilazep dihydrochloride] displayed a planktonic growth of 97%.

`O=C1c2c(O)cccc2Cc2cccc(O)c21` [Anthralin] had a planktonic growth of 110%.

For the compound `CCN(CC)CCOC(=O)C1(C2CCCCC2)CCCCC1` [Dicyclomine hydrochloride], the planktonic growth is 108%.

Compound `CC(N/C(=N\C#N)Nc1ccncc1)C(C)(C)C` (stereo not drawn) [Pinacidil] registered a planktonic growth of 96%.

Compound `CCCCC(O)c1ccccc1` (stereo not drawn) [Fenipentol] yielded a planktonic growth of 98%.

`CC(=O)Oc1ccccc1C(=O)Nc1ncc([N+](=O)[O-])s1` [Nitazoxanide] showed a planktonic growth of 82%.

The compound `CN(C)CCCN1c2ccccc2Sc2ccc(C(F)(F)F)cc21` [Triflupromazine hydrochloride] came in with a planktonic growth of 93%.

As for `CC[C@H]1OC(=O)[C@H](C)[C@@H](O[C@H]2C[C@@](C)(OC)[C@@H](O)[C@H](C)O2)[C@H](C)[C@@H](O[C@@H]2O[C@H](C)C[C@H](N(C)C)[C@H]2O)[C@](C)(O)C[C@@H](C)C(=O)[C@H](C)[C@@H](O)[C@]1(C)O` [Erythromycin], the planktonic growth is 45%.

On to `O=C1c2ccccc2C(=O)C1c1ccccc1` [Phenindione], for which the planktonic growth was 88%.

For `Clc1ccc2c(c1)C(N1CCNCC1)=Nc1ccccc1O2` [Amoxapine], the planktonic growth stood at 26%.

Compound `O=C(O)CCc1nc(-c2ccccc2)c(-c2ccccc2)o1` [Oxaprozin] came in with a planktonic growth of 92%.

For `c1ccc(CC2=NCCN2)cc1` [Tolazoline hydrochloride], the planktonic growth was 98%.

The compound `OCCN1CCN(CCCN2c3ccccc3Sc3ccc(C(F)(F)F)cc32)CC1` [Fluphenazine dihydrochloride] displayed a planktonic growth of 108%.

In turn, `CC(C)(Oc1ccc(CCNC(=O)c2ccc(Cl)cc2)cc1)C(=O)O` [Bezafibrate] gave a planktonic growth of 91%.

On to `CCc1ccc(CCOc2ccc(CC3SC(=O)NC3=O)cc2)nc1` (stereo not drawn) [Pioglitazone], for which the planktonic growth was 91%.
